About 60 (0.1%) of roughly 46,000 compounds were called active. Not shown: some 3% with an inconclusive outcome. Calls follow the shape of the dose curve; as a rule, active = well fitted inhibition curve with a large enough effect; inconclusive = small, poorly fitted or top-dose-only effect; inactive = no such curve, though single readings can be large or run the other way. This is one part of the list.
Test: Primary qHTS assay for Inhibitors of ovarian cancer metastasis using an organotypic tumor microenvironment (TME) model. Also: nearly all actives have a fitted effect of over 65% in size.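 As to activity change, negative = inhibition: plate controls were DMSO wells for no effect and tomatine positive control wells for full effect.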
Settings: SKOV3ip1-GFP adhesion/invasion on 3D omental model, fluorescence; series mostly up to 45.8 µM; activity change, negative = inhibition: at the top concentration
Method in brief: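 Adhesion/invasion was scored as fixed GFP-labeled SKOV3ip1 cell counts (488/509 nm), normalized to DMSO and tomatine controls. Cancer cells in serum-free medium, with four compound doses (0.36-46 umol/L), sat 2 hr at RT then 16 hr at 37 C on a 48 hr fibroblast/mesothelial/ECM culture.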

outcome, inactive:
CCc1cccc(NC(=O)C2Cc3ccccc3N2C(=O)c2ccccc2)c1 (stereo not given)
O=C(c1ccc2c(c1)N(Cc1c(F)cccc1Cl)C(=O)c1ccccc1S2)N1CCOCC1
CCN(CC)C(=O)Cn1c(=O)n(-c2ccc(C)c(C)c2)c(=O)c2c3c(sc21)CCCCC3
O=C(Nc1ccc(F)cc1F)c1cc(-c2ccc(Cl)cc2)on1
Cc1ccccc1-c1noc(-c2cccnc2N2CCN(c3ccccc3)CC2)n1
CCOC(=O)/C(C#N)=C/c1ccc(-c2ccc(Br)cc2)o1
COc1ccc(NC(=O)c2ccc3c(SCC(=O)O)c4c(nc3c2)CCCC4)c(OC)c1
Cc1ccc(CN2CCc3nc(Nc4ccc5c(c4)OCCO5)ncc3C2)cc1
Cc1ccc(C)c(N2CCN(C(=O)CCc3nnc4n(CC(C)C)c(=O)c5ccccc5n34)CC2)c1
Cc1ccc(-c2nn(-c3ccc(F)cc3)c3c2cnc2cc(F)c(F)cc23)cc1
CCCN(CCC)C(=O)Cn1c(=O)n(-c2ccc(Cl)cc2)c(=O)c2c3c(sc21)CCCCC3
COc1ccccc1-c1cc2nc(C)c(CCC(=O)O)c(C)n2n1
COC(=O)CCNC(=O)NC(CCC(C)C)c1c(-n2cccc2)sc2c1CCN(C)C2 (stereo not given)
Cc1nn(-c2ccc(N3CCCCC3)nn2)c(C)c1CCC(=O)NCc1ccc(OC(C)C)cc1
COc1cccc(C(=O)NCC(c2ccc(N(C)C)cc2)N2CCc3ccccc32)c1 (stereo not given)
Cn1cc(CCC(=O)NCc2ccc(Cl)cc2)c2ccccc21
O=C(O)c1c(-c2ccccc2)oc2ccc(OCc3ccc(Cl)c(Cl)c3)cc12
Cc1ccccc1CC1C(=O)Nc2ccc(Br)cc21 (stereo not given)
CCOC(=O)c1c(-c2ccc(C)cc2)csc1NC(=O)c1cc(-c2ccc(Cl)cc2)on1
CCOc1ccc(N(C(=O)c2ccccc2F)S(=O)(=O)c2ccc3c(c2)n(C)c(=O)n3C)cc1
Cc1ccc(C(=O)CCC(=O)Nc2ccc(C)cc2C)cc1
COc1ccc(-c2nc(CCNC(=O)c3cccs3)cs2)cc1
CS(=O)(=O)N(CC(=O)Nc1ccc(Br)cc1)c1ccccc1Br
Cc1nn(C)c2c1c(-c1ccccc1)cc(=O)n2Cc1ccccc1Cl
CCCCC(CC)CNC(=O)CN(C)S(=O)(=O)c1ccc2c(c1)c(=O)n(C)c(=O)n2C (stereo not given)
CCCCN(C)C(=O)Cn1c(C2CC(=O)N(c3ccc(C)cc3)C2)nc2ccccc21 (stereo not given)
Cc1ccc(C)c(NC(=O)Cn2c(=O)nc(-c3ccccc3)c3ccccc32)c1
CCOC(=O)c1ccc(NC(=O)CSc2nc3ccccc3c(=O)n2CCNC(C)=O)cc1
O=C(CS(=O)(=O)c1cccc2nsnc12)Nc1ccc(F)cc1

Activity change, negative = inhibition, inactive:
CCOC(=O)c1ccc(NC(=O)CCn2c(=O)c3cccn3c3cccnc32)cc1 -2.95%
COc1cccc(C(=O)Nc2cccc(-c3cn4ccsc4n3)c2)c1OC -15.9%
CCCCS(=O)(=O)CC(O)CSc1nc(-c2ccc(C)cc2)cc(-c2ccccc2)c1C#N (stereo not given) -1.15%
O=C(CN1C(=O)COc2ccc(S(=O)(=O)N3CCOCC3)cc21)N1CCN(c2cccc(Cl)c2)CC1 -16.9%
Cc1cccc(-c2nc3c4ccccc4n(Cc4cccc(Cl)c4)c(=O)n3n2)c1 8.67%
CCc1ccc(NC(=O)CSc2ccc(-c3ccccn3)nn2)cc1 9.21%
O=C(NCCCN1CCN(c2ccc(F)cc2)CC1)c1cnn(-c2ccc(F)cc2)c1-n1cccc1 2.77%
COc1cc(NS(=O)(=O)c2cc3c(cc2C)N(C)CCO3)cc(OC)c1OC -8.19%
COc1ccc(NC(=O)C2CCCN(c3ncnc4c3nc3n4CCCCC3)C2)c(OC)c1 (stereo not given) -3.12%
Cc1cc(Br)ccc1NC(=O)Cn1cc(S(=O)(=O)N2CCN(c3ccccc3F)CC2)c2ccccc2c1=O -28.6%
O=S(=O)(c1ccc(-c2cc(C(F)(F)F)on2)s1)N1CCN(c2ccc(F)cc2)CC1 5.56%
Cc1ccc(-n2c3c(cc(-c4nc(-c5ccc(Cl)cc5)cs4)c2=O)C(=O)CC(C)(C)C3)cc1C 0.939%
C#CCSc1nc(-c2ccccc2)cc(-c2ccccc2)c1C#N 7.72%
CC1=C(c2ccc(C(C)C)cc2)S(=O)(=O)NC1=NCCCN1CCN(c2ccccc2F)CC1 -13.1%
CCn1cc(C(=O)N2CCN(c3cccc(Cl)c3)CC2)c2cc(OC)c(OC)cc2c1=O 1.54%
CCS(=O)(=O)N1CCc2cc(C(=O)Nc3ccc(C(=O)OC)cc3)ccc21 -5.55%
CCOc1ccc(CNC(=O)c2cnc3sc(N4CCOCC4)nn3c2=O)cc1 13.1%
Cc1[nH]c(=O)c(C#N)cc1-c1ccncc1 -13.1%
Cc1ccc(NC(=O)Cn2c(=O)c3ccccc3n3nncc23)cc1 3.29%
CC(=O)c1ccc(Nc2nc3c(S(=O)(=O)c4ccccc4)nnn3c3ccc(Cl)cc23)cc1 -0.253%
CCSc1oc(-c2ccco2)nc1S(=O)(=O)c1ccc(Br)cc1 -2.3%
COc1cc(NC(=O)c2cc3c(s2)-c2ccccc2OC3)cc(OC)c1OC 1.26%
CCCc1cc(=O)[nH]c(SCC(=O)N2CCN(c3ccccc3OC)CC2)n1 0.634%
COc1ccccc1NC(=O)Cn1c(=O)n(CCC(=O)NCC2CCCO2)c(=O)c2cc(OC)c(OC)cc21 (stereo not given) 8.39%
Cc1ccc2nc(-c3ccc(O)cc3)c(Nc3ccc(Cl)cc3)n2c1 -8%
CCC(=O)N1CCc2cc(S(=O)(=O)NCCC(=O)Nc3cc(C)ccc3OC)ccc21 0.819%
CCN1c2ccccc2-c2nc(SCC(=O)NCc3ccccc3)ncc2S1(=O)=O 0.987%
Cc1ccc(NC(=O)Cn2cc(S(=O)(=O)N3CCCC3)c(S(=O)(=O)N3CCCC3)c2)cc1F 9.19%
Cc1ccccc1C(=O)Nc1ccc(OCc2cc(=O)n3ccccc3n2)cc1 4.83%
CC(C)[C@H](CO)Nc1nc(Nc2cccc(Cl)c2)c2ncn(C(C)C)c2n1 -16%
COc1cccc(NC(=O)CCN2CCN(c3ccccc3)CC2)c1 1.57%
Cc1ccc(C)c(S(=O)(=O)c2nnn3c2nc(Nc2ccc(C)c(C)c2)c2ccccc23)c1 3.8%
Cc1cc(C)cc(NS(=O)(=O)c2ccc(-n3cccn3)cc2)c1 0.766%
COCCCNC(=O)c1oc2c(c1C)-c1nn(Cc3ccc(Cl)cc3)cc1CC2 -9.04%
COc1ccc(-c2cccc(NS(=O)(=O)c3ccc(C)s3)c2)nn1 5.02%
CC1CCC(Nc2ncnc3onc(-c4ccc(F)cc4)c23)CC1 (stereo not given) 1.59%
CCOc1cc(CNc2ccc(C(=O)O)cc2)ccc1OCc1ccccc1 -20.7%
CCOc1cccc(C(=O)N(Cc2ccc(N(C)C)cc2)CC2CCCO2)c1 (stereo not given) -6.08%
Cn1c(=O)n(C)c2cc(N3CCOCC3)c(NS(=O)(=O)c3ccc(C(C)(C)C)cc3)cc21 4.32%
CCc1ccc(CNCc2c(C(=O)O)c(C)n(Cc3c(F)cccc3Cl)c2C)cc1 -3.19%
COc1cccc(-n2c(=O)c3c(C)c(C)sc3n(CC(=O)Nc3ccccc3OC)c2=O)c1 8.31%
Nc1nc(SCC(=O)Nc2cccc(C(F)(F)F)c2)n[nH]1 1.56%
CC1CCN(S(=O)(=O)c2ccc3c(ccc(=O)n3CC(=O)Nc3ccc(C(C)C)cc3)c2)CC1 -7.29%
CCc1ccccc1NC(=O)N1CCC(CN2CCc3ccccc3C2)CC1 0.972%
CNC(=O)Cn1nc(-c2ccc(Cl)cc2)c2ccccc2c1=O 1.17%
Cc1ccc(CN(C(=O)COc2ccc(Cl)cc2)c2ccccn2)o1 8.28%
Cc1cc(NC(=O)CCNS(=O)(=O)c2ccc3c(c2)CCCC(=O)N3)ccc1Br 6.26%
COc1cccc(N2CCN(C(=O)C3CCN(S(=O)(=O)c4cccc5nonc45)CC3)CC2)c1 -0.518%
CCOC(=O)c1ccc(NC(=O)CC2Sc3ccc(C(F)(F)F)cc3NC2=O)cc1 (stereo not given) 2.99%
COc1ccc(NC(=O)CSC2=Nc3ccccc3C3=NC(CCC(=O)NCc4ccc(F)cc4)C(=O)N23)cc1Cl (stereo not given) 6.06%
COc1cccc(C(=O)Nc2cccc(NC(=O)c3ccc(Cl)cc3Cl)c2)c1 1.67%
Cc1ccc(C)c(N2CCN(C(=O)c3cc4c(=O)n(Cc5ccco5)ccc4nc3C)CC2)c1 -2.05%
COc1ccc(CCNC(=O)Cn2nc(C)n3c(cc4cc(F)ccc43)c2=O)cc1OC 7.53%
Cc1cccc(NS(=O)(=O)c2ccc3c(c2)[C@H]2C=CC[C@H]2[C@@H](c2ccc(F)cc2)N3)c1 8.38%
CCc1ccc(C(=O)c2cn(CC(=O)Nc3cc(OC)ccc3OC)c3ccc(C)cc3c2=O)cc1 3.69%
CCCOc1ccc(-c2nn(-c3ccccc3)cc2C2NC(=O)NC(C)=C2C(=O)OC)cc1 (stereo not given) -5.02%
COC(=O)c1cc(S(=O)(=O)NCC2CCN(Cc3ccc(C)cc3)CC2)cn1C 20.5%
CCC(C)Nc1sc(S(=O)(=O)CC)nc1S(=O)(=O)c1ccc(C)cc1 (stereo not given) 12.5%
CCOc1ccc(CNC(=O)CCCn2nc(C)c3sc4ccccc4c3c2=O)cc1 1.51%
CC1=C(C(=O)Nc2cccnc2)C(c2ccccc2)n2nc(SCc3ccccc3Cl)nc2N1 (stereo not given) 13.5%
O=C(Nc1ccc(N2CCN(c3ccc(F)cc3)CC2)c(C(=O)O)c1)c1ccccc1F -7.77%
COc1ccc(C)cc1NC(=O)C1CCN(S(=O)(=O)c2ccc3c(c2)CCCN3C(C)=O)CC1 5.33%
CCCCOc1ccc(Cn2c(=O)oc3ccc(C)cc32)cc1 -7.65%
CCc1ccc(NC(=O)CN2C(=O)C(c3ccc(F)cc3)=NC2(C)C)cc1 -14.7%
Cc1ccc(CCNC(=O)Cn2ncc3c([nH]c4ccc(C)cc43)c2=O)cc1 -4.14%
COc1ccc(OC)c(NC(=O)CSc2cn(CC(=O)N3CCCCCC3)c3ccccc23)c1 8.79%
